# Results taken from article PMC11995724, “Antibiotic target discovery by integrated phenotypic and activity-based profiling of electrophilic fragments” (Cell chemical biology, 2025).
# Among all 3,200 compounds or so, about 75 (2%) showed an effect of 50% or more. Some of the results follow.
# System: T1, S. aureus MSSA476
# T1 construct: MSSA476
# Set-up: species or system S. aureus MSSA476 (TSB) or V. cholerae SAD30 (LB); 384-well bacterial growth screen at 25 uM, OD600 relative to DMSO control
# Settings: relative growth, OD600, TSB; 25 µM; inhibitor
row,SMILES,% of control remaining
1,"Cc1ccccc1NC(=O)C(C#N)=Cc1ccccc1Cl [8-N05, 3-(2-chlorophenyl)-2-cyano-N-(2-methylphenyl)prop-2-enamide]",84.6473%
2,"C=CC(=O)Nc1ccc(OCCC)c(C)c1 [1-C20, N-(3-methyl-4-propoxyphenyl)prop-2-enamide]",110.769%
3,"C=CC(=O)N1CCC(c2nnc(C)o2)CC1 [3-N04, 1-[4-(5-methyl-1,3,4-oxadiazol-2-yl)piperidin-1-yl]prop-2-en-1-one]",120.853%
4,"COC1CCN(c2ccc(F)cc2CN(C)C(=O)C(C)Cl)CC1 (stereo not drawn) [7-I11, 2-chloro-N-{[5-fluoro-2-(4-methoxypiperidin-1-yl)phenyl]methyl}-N-methylpropanamide]",101.099%
5,"CC(C)NC(=O)C(C#N)=Cc1ccc(F)cc1 [9-I09, 2-cyano-3-(4-fluorophenyl)-N-(propan-2-yl)prop-2-enamide]",105.768%
6,"Cc1ccc(C=C(C#N)C(=O)Nc2ccc(N3CCOCC3)cc2)s1 [8-A06, 2-cyano-3-(5-methylthiophen-2-yl)-N-[4-(morpholin-4-yl)phenyl]prop-2-enamide]",106.888%
7,"Cl.O=C(CCl)c1ccncc1F [10-I09, 2-chloro-1-(3-fluoropyridin-4-yl)ethan-1-one hydrochloride]",93.75%
8,"O=C1C=CC(=O)N1c1ccccc1F [10-D17, 1-(2-fluorophenyl)-2,5-dihydro-1H-pyrrole-2,5-dione]",118.75%
9,"N#CC(=Cc1ccccc1Cl)C(=O)Nc1ccc(Cl)cc1 [8-B11, 3-(2-chlorophenyl)-N-(4-chlorophenyl)-2-cyanoprop-2-enamide]",99.2531%
10,"CC(Cl)C(=O)Nc1cccnc1Cl (stereo not drawn) [6-C17, 2-chloro-N-(2-chloropyridin-3-yl)propanamide]",109.61%
11,"COc1ccc(NC(=O)C(C#N)=CC=Cc2ccccc2)cc1Cl [8-M18, N-(3-chloro-4-methoxyphenyl)-2-cyano-5-phenylpenta-2,4-dienamide]",98.5892%
12,"O=C(CCl)Nc1nccc(Cl)n1 [6-C19, 2-chloro-N-(4-chloropyrimidin-2-yl)acetamide]",110.976%
13,"C=CC(=O)Nc1cnn(-c2ccccc2)c1C(F)F [3-I03, N-[5-(difluoromethyl)-1-phenyl-1H-pyrazol-4-yl]prop-2-enamide]",88.1149%
14,"CC(Cl)C(=O)NCc1ccn(CC(F)F)n1 (stereo not drawn) [7-I17, 2-chloro-N-{[1-(2,2-difluoroethyl)-1H-pyrazol-3-yl]methyl}propanamide]",98.2732%
15,"N#CC(=Cc1cccc(O)c1)C(=O)Nc1ccc(SC(F)F)cc1 [9-C19, 2-cyano-N-{4-[(difluoromethyl)sulfanyl]phenyl}-3-(3-hydroxyphenyl)prop-2-enamide]",61.1236%
16,"Nc1c(C(=O)CCl)c(=O)[nH]c(=O)n1C1CC1 [10-P06, 6-amino-5-(2-chloroacetyl)-1-cyclopropyl-1,2,3,4-tetrahydropyrimidine-2,4-dione]",118.438%
17,"Cc1nn(C)c(C)c1C(NC(=O)CCl)C(F)(F)F (stereo not drawn) [5-M18, 2-chloro-N-[2,2,2-trifluoro-1-(1,3,5-trimethyl-1H-pyrazol-4-yl)ethyl]acetamide]",92.1676%
18,"Cc1cc(CN(C(=O)CCl)c2cn(C)nn2)ccc1Cl [5-I12, 2-chloro-N-[(4-chloro-3-methylphenyl)methyl]-N-(1-methyl-1H-1,2,3-triazol-4-yl)acetamide]",79.7814%
19,"CC(Cl)C(=O)N1CCn2c(Cc3c(F)cccc3F)nnc2C1 (stereo not drawn) [6-F18, 2-chloro-1-{3-[(2,6-difluorophenyl)methyl]-5H,6H,7H,8H-[1,2,4]triazolo[4,3-a]pyrazin-7-yl}propan-1-one]",110.976%
20,"O=C(CCl)c1cn(-c2cccc(C(F)(F)F)c2)nn1 [10-C09, 2-chloro-1-{1-[3-(trifluoromethyl)phenyl]-1H-1,2,3-triazol-4-yl}ethan-1-one]",-0.3125%
21,"N#CC(=Cc1coc2ccccc2c1=O)C(=O)NCCc1ccccc1 [9-J10, 2-cyano-3-(4-oxo-4H-chromen-3-yl)-N-(2-phenylethyl)prop-2-enamide]",99.176%
22,"O=C(CCl)N1CCC(CCc2ccccc2)CC1 [6-G12, 2-chloro-1-[4-(2-phenylethyl)piperidin-1-yl]ethan-1-one]",75.122%
23,"CC(=O)NC1(c2nc(C)cs2)CCN(C(=O)C(C)Cl)C1 (stereo not drawn) [7-O06, N-[1-(2-chloropropanoyl)-3-(4-methyl-1,3-thiazol-2-yl)pyrrolidin-3-yl]acetamide]",78.4929%

row,SMILES,% of control remaining
1,"C=CC(=O)NCCc1ccnn1C [2-O17, N-[2-(1-methyl-1H-pyrazol-5-yl)ethyl]prop-2-enamide]",97.8242%
2,"CC(Cl)C(=O)NC(C)c1nnnn1C1CC1 (stereo not drawn) [7-N21, 2-chloro-N-[1-(1-cyclopropyl-1H-1,2,3,4-tetrazol-5-yl)ethyl]propanamide]",99.2151%
3,"Cc1cc(C)c(NC(=O)C(C#N)=Cc2ccccc2C)c(C)c1 [8-E13, 2-cyano-3-(2-methylphenyl)-N-(2,4,6-trimethylphenyl)prop-2-enamide]",65.0622%
4,"CCCn1c(C)cc(C=C(C#N)C(=O)N2CCCC2)c1C [9-I03, 3-(2,5-dimethyl-1-propyl-1H-pyrrol-3-yl)-2-(pyrrolidine-1-carbonyl)prop-2-enenitrile]",89.2884%
5,"N#CC(=Cc1cnn(CCCl)c1)C(=O)NC1CCCCC1 [9-A16, 3-[1-(2-chloroethyl)-1H-pyrazol-4-yl]-2-cyano-N-cyclohexylprop-2-enamide]",79.7004%
6,"O=C(CCl)NC(=O)c1ccc(OC(F)F)cc1 [5-J22, N-(2-chloroacetyl)-4-(difluoromethoxy)benzamide]",106.011%
7,"C=CC(=O)NCCC(=O)Nc1nc2n(n1)CCCC2 [2-M14, N-[2-({5H,6H,7H,8H-[1,2,4]triazolo[1,5-a]pyridin-2-yl}carbamoyl)ethyl]prop-2-enamide]",114.883%
8,"C=CC(=O)N1CCCCC1Cn1ccnn1 (stereo not drawn) [2-K07, 1-{2-[(1H-1,2,3-triazol-1-yl)methyl]piperidin-1-yl}prop-2-en-1-one]",79.0252%
9,"C=CC(=O)NCc1cnc(-c2ccc(C(F)(F)F)cc2)s1 [1-C13, N-({2-[4-(trifluoromethyl)phenyl]-1,3-thiazol-5-yl}methyl)prop-2-enamide]",87.5604%
10,"O=C(CCl)Nc1ccnn1Cc1ccccc1Cl [6-O08, 2-chloro-N-{1-[(2-chlorophenyl)methyl]-1H-pyrazol-5-yl}acetamide]",103.805%
11,"COc1cccc(C=C(C#N)C(=O)Nc2ccccc2C(=O)O)c1 [9-G08, 2-[2-cyano-3-(3-methoxyphenyl)prop-2-enamido]benzoic acid]",64.1199%
12,"CC(O)=C(C#N)C(=O)Nc1ccc(C(F)(F)F)cc1 [9-A05, 2-cyano-3-hydroxy-N-[4-(trifluoromethyl)phenyl]but-2-enamide]",71.6105%
13,"C=CC(=O)N(CC)CC(=O)N1CCCC1c1ccc(F)cc1C (stereo not drawn) [2-F08, N-ethyl-N-{2-[2-(4-fluoro-2-methylphenyl)pyrrolidin-1-yl]-2-oxoethyl}prop-2-enamide]",97.1279%
14,"Cc1ccc(C(=O)CN(C(=O)CCl)c2ccccc2)cc1 [4-B13, 2-chloro-N-[2-(4-methylphenyl)-2-oxoethyl]-N-phenylacetamide]",140.638%
15,"CN1C(=O)C(=C(C#N)C(=O)NCc2ccc(Cl)cc2)c2ccccc21 [8-K17, N-[(4-chlorophenyl)methyl]-2-cyano-2-(1-methyl-2-oxo-2,3-dihydro-1H-indol-3-ylidene)acetamide]",101.577%
16,"C=CC(=O)NCC(=O)N1CCCO1 [1-H05, N-[2-(1,2-oxazolidin-2-yl)-2-oxoethyl]prop-2-enamide]",95.6484%
17,"CCN(CC)C(=O)c1ccc(NC(=O)CCl)cc1 [4-C05, 4-(2-chloroacetamido)-N,N-diethylbenzamide]",84.9929%
18,"N#CC(=Cc1ccc2c(c1)OCCO2)C(=O)NCc1ccccc1 [8-H03, N-benzyl-2-cyano-3-(2,3-dihydro-1,4-benzodioxin-6-yl)prop-2-enamide]",96.9295%
19,"O=C(CCl)Nc1cc(C(F)(F)F)ccc1Cl [4-J04, 2-chloro-N-[2-chloro-5-(trifluoromethyl)phenyl]acetamide]",129.967%
20,"CC(Cl)C(=O)NC1CCCCC1 (stereo not drawn) [4-O06, 2-chloro-N-cyclohexylpropanamide]",79.2758%
21,"COc1cccc(N2C(=O)C=CC2=O)c1 [10-K03, 1-(3-methoxyphenyl)-2,5-dihydro-1H-pyrrole-2,5-dione]",124.375%
22,"C=CC(=O)N(C)Cc1ccn(CC)n1 [1-L16, N-[(1-ethyl-1H-pyrazol-3-yl)methyl]-N-methylprop-2-enamide]",121.319%
